Results as given in PubChem BioAssay AID493208 (National Center for Advancing Translational Sciences (NCATS), 2011).
Hit rate of the full screen: of about 44,000 compounds, about 340 (0.77%) were called active. About 5% were inconclusive and are not listed. The call rests on the fitted dose curve; in most records, active means well fitted inhibition curve with a large enough effect; inconclusive means small, poorly fitted or top-dose-only effect; inactive means flat fitted curve, though single readings scatter. The list shows a part of the results.

test: Acumen qHTS Assay for Inhibitors of the mTORC1 Signaling Pathway in MEF (Tsc2-/-, p53-/-) Cells: Sytravon; settings: phospho-rpS6 immunofluorescence/PI, 24 h; series mostly up to 38.3 µM; activity change, negative = inhibition: at the top concentration; further: nearly all actives have a fitted effect of over 50% in size;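 on activity change, negative = inhibition: plate controls were DMSO for no effect and rapamycin for full effect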
In short: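 Read-out: phospho-S6 Alexa-488 intensity over PI intensity per well, scored as % active cells using thresholds from rapamycin (7.5 nM) and DMSO controls. Tsc2-/-, p53-/- MEFs exposed to compound for 24 h; PI cell count recorded as viability.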
Potency means the concentration at half of the fitted maximal effect.

Activity change, negative = inhibition, inactive:
COc1ccc(NC(=O)c2cnc[nH]2)cc1 -1.84%, COc1ccc(-c2cn3nc(SCC(=O)Nc4ccc(C)c(Cl)c4)ccc3n2)cc1 6.88%, COC(=O)c1ccc(NC(=O)CN2C(=O)c3cccc4cccc2c34)cc1 7.39%, Cc1ccc(NC(c2ccc(Cl)cc2)c2nnc(-c3cccc(F)c3)o2)cc1C (stereo unspecified) -12.3%, CCN(CCCNC(=O)c1cc(Nc2ccccc2OC)nc2ccccc12)c1cccc(C)c1 -15%, COc1ccc(-c2noc(C3CC(=O)N(c4ccccc4)C3)n2)c(OC)c1 (stereo unspecified) -2.74%, COc1ccc(OC)c(CCNC(=O)c2c3c(nc4ccccc24)C(=O)N(C2CCCCC2)C3)c1 1.62%, Cc1cc(C)c(NC(=O)COc2ccc3c(C)cc(=O)oc3c2)c(C)c1 2.22%, O=C(CSc1nc2c([nH]c3ccccc32)c(=O)n1-c1ccc(Cl)cc1)N1CCCC1 -1.64%, CCOc1ccc(S(=O)(=O)c2cn(Cc3cc(C)ccc3C)c3ccc(OCC)cc3c2=O)cc1 2.7%, CCOC(=O)Cn1c(=O)oc2cc(S(=O)(=O)N3CCN(c4ccc(C(C)=O)cc4)CC3)ccc21 -0.575%, COc1ccc(NC(=O)Cn2nc(C)c3nn(-c4ccc(Cl)cc4)c(C)c3c2=O)cc1 11.6%, COc1cccc(Nc2nc3cc(Cl)c(Cl)cc3nc2-n2nc(C)cc2C)c1 -0.745%, CC1CCN(c2oc(/C=C/c3ccc(F)cc3)nc2C#N)CC1 -3.18%, CCOc1ccc(NC(=O)c2cc(S(=O)(=O)N3CCOCC3)ccc2F)cc1 11.6%, CCCOC(=O)c1ccc(Cn2nnc3sc4c(c3c2=O)CCC(C)C4)cc1 (stereo unspecified) -0.856%, COc1ccccc1CNC(=O)c1cnc(N2CCCC2)nc1C 0%, CCc1c(C)sc2c1CCN(C(=O)Nc1ccc(F)c(Cl)c1)C2c1ccc(F)cc1 (stereo unspecified) 0%, CCOc1ccc(-c2nc(Cn3c(=O)cc(C)c4c(C)nn(-c5ccc(C)cc5)c43)c(C)o2)cc1 -0.503%, COc1ccc(CCNC(=O)CCn2c(=O)c3ccccc3n(CC(=O)Nc3ccc(C)cc3C)c2=O)cc1OC 2.71%, O=C(Nc1ccccc1)C1CCN(S(=O)(=O)c2ccc3[nH]c4c(c3c2)CCCCC4)CC1 -11.2%, COc1ccccc1NC(=O)C1=C(C)Nc2nc(SCc3ccccc3)nn2C1c1cccnc1 (stereo unspecified) 8.74%, O=C(Nc1ccc(Cl)cc1)N1CCN(c2ccc3nnc(-c4ccccc4)n3n2)CC1 -2.81%, CCOc1ccc(NC(=O)c2cc3c(=O)n(Cc4cccs4)ccc3nc2C)cc1 -9.57%, Cn1c(=O)c2c(c3ccccc31)OC(=O)CC2c1cccc(F)c1 (stereo unspecified) 0.692%, O=C(C1CCC(Cn2c(=O)c3sccc3n(Cc3ccccc3F)c2=O)CC1)N1CCCCC1 (stereo unspecified) -16.5%, COc1ccccc1N(CC(=O)NCCSCc1cccc(Cl)c1)S(C)(=O)=O -12.9%, CCCCNC(=O)C1CCN(S(=O)(=O)c2ccc3c(ccn3CC)c2)CC1 -1.72%, Cc1cc(C)c(NC(=O)c2ncoc2-c2ccco2)c(C)c1 0%, Cc1cc(C)cc(NC(=O)CSc2nnc(-c3cc4occc4n3C)n2-c2ccccc2C)c1 -5.16%, COc1ccc2c(CNC3CCCCCC3)c(C(=O)O)n(Cc3cccc(F)c3)c2c1 -7.27%, O=S(=O)(NCCc1csc2nc(-c3ccccc3)nn12)c1ccc(Cl)s1 -7.24%, CCN(CC)CCSc1nnc2c3cc(F)ccc3n(C)c2n1 -4.21%, CCOC(=O)c1c(C)[nH]c(CCC(=O)Nc2ccc(Cl)cc2C)c1C 6.37%, COC(=O)c1ccc(OC)c(CN2C(=O)N(c3ccc(C(C)=O)cc3)S(=O)(=O)c3ccccc32)c1 -3.97%, COc1ccc(-c2noc(CNS(=O)(=O)c3ccc(Br)cc3)n2)cc1OC 4.09%, Cc1ccc(-c2noc(CN(C(=O)COc3cc(C)cc(C)c3C)C(C)C)n2)cc1 -1.52%, Cc1ccc(C)c(CN2C(=O)c3ccccc3S(=O)(=O)c3ccc(C(=O)NCc4ccccc4)cc32)c1 -0.13%, Cc1cccc(OCCCn2c(CCNC(=O)C(C)(C)C)nc3ccccc32)c1 2.67%, CCCN1CCc2nc(N3CCN(c4ncccn4)CC3)ncc2C1 3.44%, Cc1cccc(OCCSc2nc3ccc(NC(=O)COc4ccccc4)cc3s2)c1 -6.41%, CCn1cc2nc(SCc3cc(C)ccc3C)n(Cc3ccc(OC)cc3)c(=O)c2n1 3.08%, Cc1ccc2c(=O)c(C(=O)c3ccc(F)cc3)cn(CC(=O)NCCc3ccccc3)c2n1 -29.1%, CCOCCCNC(=O)C(=O)Nc1c2c(nn1-c1ccc(OC)cc1)CSC2 -4.57%, CCOc1ccc(C(=O)Nc2ccc3oc(-c4cccnc4)nc3c2)cc1 -0.485%, COc1ccc(S(=O)(=O)Nc2cc3c(cc2NCc2ccccc2)n(C)c(=O)n3C)cc1 -1.36%, COc1ccc(CN(Cc2ccco2)c2cnc(S(C)(=O)=O)nc2C(=O)Nc2ccc(C)cc2C)cc1 0.388%, Cc1c(C(=O)NCc2ccccc2Cl)sc2nc[nH]c(=O)c12 -2.67%, Cc1csc2nc(COC(=O)CNC(=O)c3ccccc3Cl)cc(=O)n12 -0.922%, O=C(Nc1c(C(=O)N2CCN(c3ccccc3F)CC2)oc2ccccc12)c1ccccc1F 2.82%, Cc1ccc(-n2nc3c(=O)n(CCCC(=O)NCc4ccccc4F)nc(C)c3c2C)cc1 -7.08%, CN1CCN(CCCNC(=O)c2ccc3nc(Cc4ccccc4)oc3c2)CC1 7.02%, O=C(CN1CCCN(Cc2ccc(F)cc2)S1(=O)=O)NCc1ccccc1Cl 1.86%, CCn1cc(C(=O)NCc2ccc(C)cc2)c(=O)c2cc(S(=O)(=O)N3CCc4ccccc4C3)ccc21 -0.595%, CCC12CN3CC(CC)(CN(C1)C3c1cc(Br)ccc1OC)C2=O (stereo unspecified) 0.404%, Cc1nc(-c2ccc(S(=O)(=O)N3CCN(c4ccc(F)cc4)CC3)cc2)co1 -9.23%, CCc1ccc(N(C)S(=O)(=O)c2ccc3[nH]cc(C(=O)NCC4CCCO4)c(=O)c3c2)cc1 (stereo unspecified) 12%, N#Cc1ccccc1NC(=O)c1cnc(N2CCOCC2)c2ccccc12 0.669%, CCC(=O)N1CCc2cc(Br)cc(S(=O)(=O)CCC(=O)NCc3ccc(F)cc3)c21 -2.2%, Cc1ccc(Cn2c(CNC(=O)c3cccc(C)c3)nc3ccccc32)cc1 -6.19%, COc1ccccc1-c1nnc(C2CCN(C(=O)c3ccc(Cl)cc3)CC2)o1 -17.2%, COc1cccc2c1Oc1ncccc1N(C(=O)CCC(=O)NCc1ccc(C)cc1)C2 -0.362%, CCOc1ccccc1NC(=O)Cn1c2ncccc2c(=O)n1-c1ccc(C)c(C)c1 6.52%, CCc1ccc2nc(N3CCN(C(=O)C4CC4)CC3)sc2c1 -13.2%, Cc1oc(-c2ccc(C(=O)Nc3ccccc3F)cc2)nc1COc1ccccc1 3.2%, COc1ccc(C)cc1NC(=O)CSc1nc(=O)n(Cc2ccccn2)c2c1CCC2 0.966%, Cc1oc2c(c(C)cc3oc(=O)c(CC(=O)NCc4ccc(F)cc4)c(C)c32)c1C 3.27%, CC(=O)N1CCCc2cc(S(=O)(=O)Nc3ccc(C)c(F)c3)ccc21 0.307%, CCOc1ccc(NC(=O)CN2C(=O)C3(SCC(=O)N3c3ccc(F)cc3)c3ccccc32)cc1 (stereo unspecified) 3.52%, COc1ccc(C2C(=O)N(C3CCC(C)CC3)CC(=O)N2CCC2=CCCCC2)cc1OC (stereo unspecified) 10.2%, Cc1cccc(C)c1NC(=O)CN1C(=O)c2cccc3cccc1c23 -3.4%, COc1ccc(CNc2oc(-c3ccc(COc4ccc(OC)cc4)o3)nc2C#N)cc1 -21.3%, CC(=O)N1CCc2cc(S(=O)(=O)NC(Cc3ccccc3)C(=O)Nc3ccc(Cl)cc3)ccc21 (stereo unspecified) 0.626%, Cc1cc(C)c(OCC(=O)N(Cc2cccc(F)c2)Cc2ccco2)c(C)c1 -3.21%, CCOC(=O)c1ccc(NS(=O)(=O)c2ccc3[nH]c4c(c3c2)CCCCC4)cc1 1.43%, CCCCN(C)C(=O)Cn1c(SCC(=O)Nc2ccc(C)c(C)c2)nc2ccccc21 5.3%, CCOC(=O)C1(C)C=C(Nc2ccc(C(=O)O)cc2)C(=O)N1c1ccc(C(=O)O)cc1 (stereo unspecified) -1.96%, Cc1nc2ccccc2n1CCc1nc2c3ccccc3nc(SCc3ccc(F)cc3)n2n1 -4.31%, Cc1cccc(Nc2c3c(nc4nncn24)CCC3)c1C 1.89%, COc1ccc2c(c1)c1c(c(=O)n(-c3ccccc3C)c(=O)n1Cc1c(F)cccc1Cl)n2C 2.13%, CCOC(=O)c1c(C)oc2nc(C)nc(NCC3CCN(Cc4cccc(Cl)c4)CC3)c12 -9.02%, Cc1cccc(NC(=O)C2CCCN(c3nc4ccccc4s3)C2)c1C (stereo unspecified) -3.04%, CCOC(=O)C1CCCN(C(=O)Cn2nc(CC)n3c(cc4occc43)c2=O)C1 (stereo unspecified) -7.66%, CCOc1ccccc1NC(=O)CN1C=NS(=O)(=O)c2ccccc21 0.166%, Cc1ccc(CCNC(=O)c2ccc(CS(=O)(=O)Cc3ccccc3F)o2)cc1 -1.69%, Cc1ccc(NC(=O)CCNS(=O)(=O)c2ccc3c(c2)CCCC(=O)N3)cc1 4.76%, COc1cccc2cc(-c3nc(-c4ccc(C)cc4)c(C)s3)c(=O)oc12 -5.57%, Cc1ccc(C(=O)Nc2ccc3nc(N4CCCCC4)cc(C)c3c2)cc1F -0.87%, CC(=O)c1ccc(N2C(=O)N(Cc3cc(C)ccc3C)c3ccccc3S2(=O)=O)cc1 0.527%, O=S(=O)(Nc1ccc(Cl)cc1)c1cccc(S(=O)(=O)c2ccc(Cl)c(Cl)c2)c1 -2.68%, Cc1cc(Nc2ccc(F)cc2)nc(-n2nc(C)cc2C)n1 -0.475%, CCc1cccc(C)c1NC(=O)CCn1nc(C)c2c(C)n(-c3ccccc3)nc2c1=O -1.52%, CC1=C(C(=O)Nc2cccc(C(F)(F)F)c2)C(c2ccccc2)n2ncnc2N1 (stereo unspecified) 0.473%, COc1ccc(NC(=O)Cc2noc3ccc(C)cc23)cc1Cl -26.2%, COc1ccc(NC(=O)Cn2c(=O)n(-c3ccc(C)c(C)c3)c(=O)c3c(C)c(C)sc32)cc1 28.5%

Potency, active:
Cc1ccc(C)c(N2CCN(CCCNC(=O)Nc3ccc(Cl)cc3)CC2)c1 18.5 µM
